Laboratory results as given in paper PMC6656915, “The MmpL3 interactome reveals a complex crosstalk between cell envelope biosynthesis and cell elongation and division in mycobacteria” (Scientific Reports, 2019).
These are yes or no findings as the source states them, for the method shown. For some of these results: Binding seen in cells or lysates may run through a third protein. Some entries that bind do so weakly or less than the wild type. For some of these results: Where a sequence is shown, tags or fusion partners need not be part of it.

How the values were obtained:
[1] = target: T1, MmpL3 (full-size), T18/T25 fusion (M. tuberculosis) (UniProt P9WJV5); experiment: two-hybrid
T1 sequence: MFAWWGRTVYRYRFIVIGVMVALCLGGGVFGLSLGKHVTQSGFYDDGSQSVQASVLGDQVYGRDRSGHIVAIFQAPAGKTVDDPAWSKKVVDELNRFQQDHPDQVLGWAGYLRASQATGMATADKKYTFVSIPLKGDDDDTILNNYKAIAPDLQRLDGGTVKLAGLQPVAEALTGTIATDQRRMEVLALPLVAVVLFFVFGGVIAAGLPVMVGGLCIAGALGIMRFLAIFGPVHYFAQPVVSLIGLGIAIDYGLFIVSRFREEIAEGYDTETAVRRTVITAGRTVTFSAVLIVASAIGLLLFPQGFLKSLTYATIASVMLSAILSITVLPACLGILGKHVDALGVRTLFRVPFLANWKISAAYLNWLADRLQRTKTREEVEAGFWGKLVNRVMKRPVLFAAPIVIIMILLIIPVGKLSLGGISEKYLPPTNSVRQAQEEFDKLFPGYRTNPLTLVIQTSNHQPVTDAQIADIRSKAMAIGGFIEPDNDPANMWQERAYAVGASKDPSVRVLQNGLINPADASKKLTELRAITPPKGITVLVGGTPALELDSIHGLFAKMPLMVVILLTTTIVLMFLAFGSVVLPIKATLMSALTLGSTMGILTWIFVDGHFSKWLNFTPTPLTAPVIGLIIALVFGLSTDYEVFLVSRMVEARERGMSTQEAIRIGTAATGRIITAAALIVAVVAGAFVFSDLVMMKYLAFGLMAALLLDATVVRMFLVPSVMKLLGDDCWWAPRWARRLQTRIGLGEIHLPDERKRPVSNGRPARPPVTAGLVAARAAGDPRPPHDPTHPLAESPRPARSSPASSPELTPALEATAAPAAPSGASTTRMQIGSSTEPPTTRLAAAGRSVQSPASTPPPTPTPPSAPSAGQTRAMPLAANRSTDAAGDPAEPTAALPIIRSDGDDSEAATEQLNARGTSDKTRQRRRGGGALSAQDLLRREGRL

[2] = target: Rv0227c, T18/T25 fusion (M. tuberculosis) (UniProt P96409); experiment: two-hybrid
[3] = target: MmpL3tb^1–744, T18/T25 fusion (M. tuberculosis) (UniProt P9WJV5); experiment: two-hybrid
[4] = target: Rv0204c, T18/T25 fusion (M. tuberculosis) (UniProt I6Y748); experiment: two-hybrid
[5] = target: T2, MmpL3tb-GFP tagged with hexahistidine at the C-terminal end (M. tuberculosis) (UniProt P9WJV5); experiment: cross-linking + pull-down
T2 sequence: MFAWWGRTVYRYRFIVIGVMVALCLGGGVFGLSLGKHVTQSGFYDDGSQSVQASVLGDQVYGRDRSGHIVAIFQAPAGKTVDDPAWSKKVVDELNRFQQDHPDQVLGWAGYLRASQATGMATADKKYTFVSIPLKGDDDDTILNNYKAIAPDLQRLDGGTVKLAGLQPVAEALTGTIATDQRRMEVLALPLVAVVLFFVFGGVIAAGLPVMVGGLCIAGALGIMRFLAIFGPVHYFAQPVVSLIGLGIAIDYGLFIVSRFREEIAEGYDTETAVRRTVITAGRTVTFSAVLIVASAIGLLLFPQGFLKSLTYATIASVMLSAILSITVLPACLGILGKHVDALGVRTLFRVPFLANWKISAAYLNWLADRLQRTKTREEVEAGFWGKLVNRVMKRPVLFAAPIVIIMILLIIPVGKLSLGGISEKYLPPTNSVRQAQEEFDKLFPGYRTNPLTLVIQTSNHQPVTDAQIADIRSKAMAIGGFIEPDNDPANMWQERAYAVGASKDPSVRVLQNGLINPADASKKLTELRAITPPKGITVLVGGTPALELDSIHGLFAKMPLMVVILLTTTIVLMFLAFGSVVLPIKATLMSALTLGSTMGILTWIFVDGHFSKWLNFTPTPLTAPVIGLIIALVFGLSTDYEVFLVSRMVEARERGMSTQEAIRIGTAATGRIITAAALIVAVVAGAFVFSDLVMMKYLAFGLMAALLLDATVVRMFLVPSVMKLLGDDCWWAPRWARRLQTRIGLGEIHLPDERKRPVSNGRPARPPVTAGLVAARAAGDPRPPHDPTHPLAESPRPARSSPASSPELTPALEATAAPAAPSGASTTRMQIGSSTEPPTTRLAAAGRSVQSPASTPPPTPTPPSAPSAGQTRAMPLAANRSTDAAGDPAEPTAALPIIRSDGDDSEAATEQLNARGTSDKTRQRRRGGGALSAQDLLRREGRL

[6] = target: T3, CrgA, T18/T25 fusion (M. tuberculosis) (UniProt P9WP57); experiment: two-hybrid
T3 sequence: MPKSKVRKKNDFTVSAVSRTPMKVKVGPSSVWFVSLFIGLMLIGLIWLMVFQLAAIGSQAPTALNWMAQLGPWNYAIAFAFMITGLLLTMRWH

[7] = target: T2, MmpL3tb-GFP tagged with hexahistidine at the C-terminal end (M. tuberculosis); experiment: co-IP

With “AftD (M. tuberculosis), T18/T25 fusion (from UniProt P96419 1-1400)” as the molecule, how does the binding [1] read?
Its binding is “binds”.

And the binding [2]?
The binding was “binds”.

What about the binding [3] of the same molecule?
Its binding is “binds”.

How did the binding [4] turn out when “MmpL11, T18/T25 fusion (from UniProt P9WJT9 1-966)” was run?
Its binding is “binds”.

B1: CrgA from M. tuberculosis H37Rv N-terminally tagged with a FLAG epitope (protein, UniProt P9WP57 1-93)
chain: MPKSKVRKKNDFTVSAVSRTPMKVKVGPSSVWFVSLFIGLMLIGLIWLMVFQLAAIGSQAPTALNWMAQLGPWNYAIAFAFMITGLLLTMRWH
For B1, which binding [5] is on record?
The binding was “binds”.

B2: Wag31, T18/T25 fusion (protein, UniProt P9WMU1 1-260)
chain: MPLTPADVHNVAFSKPPIGKRGYNEDEVDAFLDLVENELTRLIEENSDLRQRINELDQELAAGGGAGVTPQATQAIPAYEPEPGKPAPAAVSAGMNEEQALKAARVLSLAQDTADRLTNTAKAESDKMLADARANAEQILGEARHTADATVAEARQRADAMLADAQSRSEAQLRQAQEKADALQADAERKHSEIMGTINQQRAVLEGRLEQLRTFEREYRTRLKTYLESQLEELGQRGSAAPVDSNADAGGFDQFNRGKN
With B2 as the molecule, how does the binding [6] read?
Its binding is “binds”.

B3: CrgA-FLAG (CrgA N-terminally tagged with a FLAG epitope) (protein, UniProt P9WP57 1-93)
chain: MPKSKVRKKNDFTVSAVSRTPMKVKVGPSSVWFVSLFIGLMLIGLIWLMVFQLAAIGSQAPTALNWMAQLGPWNYAIAFAFMITGLLLTMRWH
With B3 as the molecule, how does the binding [7] read?
The binding was “binds”.
